Out of some 43,000 compounds screened, about 200 (0.47%) were called active. Inconclusive results (about 12%) are left out. The call rests on the fitted dose curve; in most records, active means well fitted cell-killing curve with a large enough effect; inconclusive means small, poorly fitted or top-dose-only effect, or effect the other way; inactive means flat fitted curve, though single readings scatter. The list shows a part of the results.
Experiment: Cell viability qHTS assay in S16 Pmp22-F2sN cells; further: nearly all actives have a fitted effect of over 65% in size
Conditions: S16 Pmp22-F2sN Schwann cells (luciferase reporters placed in the Pmp22 gene) viability, CellTiter-Glo, 24 h; series mostly up to 57.5 µM; activity change, negative = cytotoxicity: at the top concentration
Outline: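 Luminescence from CellTiter-Glo, read by CCD camera after a 15 min room-temperature incubation, served as the viability signal. Reporter Schwann cells (S16 Pmp22-F2sN) had been treated with pin-transferred compounds for 24 h at 37C.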
On the % scale 0 is the no-effect control and ±100 the full control effect.

SMILES | activity change, negative = cytotoxicity
COc1ccc(NC(=O)c2ccc3snnc3c2)cc1OC | inactive: 8.72%
CN(C)C(=O)c1ccc(S(=O)(=O)NCc2ccccc2Cl)s1 | inactive: 8.98%
COc1cc(OC)cc(-n2c(=O)[nH]c3cc(C(=O)NCCc4ccc(C)cc4)ccc3c2=O)c1 | inactive: -4.23%
CCN(C(=O)c1sc2nc3n(c(=O)c2c1C)CCCCC3)c1ccccc1F | inactive: -21.1%
Cc1ccc(NC(=O)Nc2nnc(N3CCCCC3)s2)c(C)c1 | inactive: -5.1%
CCc1ccc(CNC(=O)c2cc3c(=O)oc4ccc(C)cc4c3s2)cc1 | inactive: 0.471%
COCCCNC(=O)Cn1c(=O)n(CCCC(=O)NCc2ccc(C)cc2)c(=O)c2ccccc21 | inactive: -5.15%
CCCC(=O)N(c1ccc2oc(-c3ccccc3)c(C(=O)OCC)c2c1)S(=O)(=O)c1ccc(C)cc1 | inactive: -7.49%
O=C(NCC(c1ccc2c(c1)OCO2)N1CCOCC1)c1ccc(F)cc1 (stereo unspecified) | inactive: 1.28%
CCCCN1CC(c2nc3ccccc3n2CCCCOc2c(C)cccc2C)CC1=O (stereo unspecified) | inactive: -2.2%
CC1=C(c2ccc(C)c(C)c2)S(=O)(=O)N=C1N1CCN(c2cccc(C(F)(F)F)c2)CC1 | inactive: 17.9%
Cc1ccc(NC(=O)Cn2c(=O)n(-c3ccc(CC(=O)NCC4CCCO4)cc3)c(=O)c3ccccc32)cc1 (stereo unspecified) | inactive: 18.8%
CCOc1ccc(-n2c(=O)c3c4c(sc3n(Cc3cccc(Cl)c3)c2=O)CCCC4)cc1 | inactive: 6.06%
COc1ccc(-c2nn(-c3ccccc3)cc2C(=O)Nc2ccccc2OC)cc1 | inactive: 27.8%
CCn1cc(C(=O)N2CCN(c3ccccc3OC)CC2)c(=O)c2cc(S(=O)(=O)N3CCCCC3)ccc21 | inactive: -6.5%
Cc1cccc(C(=O)Nc2ccccc2-c2nc(-c3ccccc3)no2)c1 | inactive: 1.31%
CCOc1ccc(Sc2cc(C(=O)NCCc3ccc(OC)c(OC)c3)c3ccccc3n2)cc1 | inactive: 13.3%
Cc1ccc2nc(Cl)c3cc(C(=O)N(C)C4CCCCC4)sc3c2c1 | inactive: 0.607%
Cc1cc2nn(-c3ccc(F)cc3)nc2cc1NC(=O)c1ccc(OC(C)C)cc1 | inactive: 5.88%
Cc1ccc(NC(=O)CSc2nc3ccc(NC(=O)c4cccs4)cc3s2)c(C)c1 | inactive: -33.7%
COc1cccc(Cn2c(=O)n(-c3cccc(Cl)c3C)c(=O)c3c4c(sc32)CN(C(C)=O)CC4)c1 | inactive: -22.9%
CCOC(=O)c1c(C)oc2nc(C)nc(NCC3CCN(Cc4cccc(C)c4)CC3)c12 | inactive: 7.7%
CCn1c(CNC(=O)c2ccc(OC)cc2)nnc1SCC(=O)Nc1cccc(C)c1C | inactive: 10.4%
COc1ccccc1NC(=O)CSc1ccc(-c2sc(C)nc2C)nn1 | inactive: -4.31%

SMILES | activity change, negative = cytotoxicity
COc1cccc(CNCCSc2nnnn2C)c1OCc1ccc(Cl)cc1Cl | inactive: -28.9%
CCC(Nc1ccc(-c2nc(-c3ccco3)no2)cc1[N+](=O)[O-])c1ccccc1 (stereo unspecified) | inactive: 4.93%
Cc1cccc(-c2nc(CCNC(=O)Cc3ccc(F)cc3)cs2)c1 | inactive: -5.12%
CCc1cnc2c(c1SCC(=O)Nc1ccc(Cl)cc1)c(=O)n(C)c(=O)n2C | inactive: -3.44%
COc1ccc(-c2cc(C(F)F)n3ncc(C(=O)Nc4cc(OC)ccc4OC)c3n2)cc1 | inactive: -16.3%
CCOc1ccc(NC(=O)Cc2coc3ccc(C)cc23)cc1 | inactive: 14.8%
O=C(NCC(c1ccc2c(c1)OCO2)N1CCOCC1)c1ccccc1F (stereo unspecified) | inactive: -1.74%
O=C(NCc1ccccc1)c1nnc(Cc2cccc(F)c2)o1 | inactive: 2.09%
CCc1ccc2occ(CC(=O)Nc3c(C(=O)Nc4ccc(OC)cc4)oc4ccccc34)c2c1 | inactive: -2.42%
Cc1cccn2cc(-c3cccc(NS(=O)(=O)c4ccc(Cl)c(Cl)c4)c3)nc12 | inactive: -6.34%
COc1ccc(C2c3cccn3CCN2S(=O)(=O)c2ccccc2[N+](=O)[O-])cc1OC (stereo unspecified) | inactive: -15.2%
CC(=O)c1cccc(NC(=O)Cn2c(SCC(=O)Nc3ccc(F)cc3)nc3ccccc32)c1 | inactive: 3.66%
Cc1c2cnn(CC(=O)NCc3ccccc3)c(=O)c2c(C)n1Cc1cccc(Cl)c1 | inactive: -12.6%
CCOc1ccc(-n2c(C)nc3c(cnn3-c3ccc(C)cc3)c2=O)cc1 | inactive: -23.8%
CCN(CCCNC(=O)c1cc2c(=O)[nH]c3ccccc3c2s1)c1ccccc1 | inactive: 0.815%
CCC1CCCCN1S(=O)(=O)c1ccc(NC(=O)c2cc(=O)c3ccccc3o2)cc1 (stereo unspecified) | inactive: 0.209%
O=S(=O)(c1ccc(-n2cnnn2)cc1)N1CCN(c2ccccc2F)CC1 | inactive: -3.71%
O=C(Nc1nc(-c2ccc(Br)cc2)ns1)c1ccc(F)cc1 | inactive: -24.2%
Cn1cc(S(=O)(=O)c2ccccc2)c(=O)c2cc(F)c(N3CCOCC3)cc21 | inactive: -3.88%
N#C/C(=C\c1ccc(Cl)cc1)C(=O)NCC1CCCO1 (stereo unspecified) | inactive: 10.5%
COc1ccc(CCN2C(=O)N(c3ccc(F)cc3)C(=O)C2CC(=O)Nc2ccccc2)cc1 (stereo unspecified) | inactive: -4.37%
COc1ccc(-c2c(C#N)c(SCC(=O)Nc3ccccc3C)nc(C)c2C(=O)Nc2ccccc2)cc1OC | inactive: 1.22%
COCCCNC(=O)CSc1nc(-c2cccc(F)c2)[nH]c1-c1ccccc1 | inactive: 0.101%
O=C(CN1CCN(Cc2ccccc2Cl)C1=O)NCc1ccccc1Cl | inactive: 1.72%

SMILES | activity change, negative = cytotoxicity
CCOc1ccc(C(=O)c2cn(CC(=O)Nc3cc(OC)cc(OC)c3)c3ccc(F)cc3c2=O)cc1 | inactive: 0.974%
COc1ccc(NC(=O)Cn2c(=O)oc3cc(S(=O)(=O)NC(C)C)ccc32)cc1OC | inactive: -0.214%
O=C(CCn1c(=O)c2cccn2c2ccc(F)cc21)NCc1ccccc1F | inactive: -0.0817%
Cc1ccc(NC(=O)CSc2nc(-c3ccc(F)cc3)cc(C(F)(F)F)c2C#N)cc1 | inactive: 5.5%
Cc1cccc(NC(=O)Cn2c(=O)n(Cc3ccc(C(=O)NCc4ccc5c(c4)OCO5)cc3)c(=O)c3ccccc32)c1 | inactive: 9.33%
CCNC(=O)CC1C(=O)N(c2ccccc2)C(=O)N1Cc1ccc(F)cc1 (stereo unspecified) | inactive: 2.11%
COc1ccccc1N1CCN(S(=O)(=O)c2ccc3c(c2)oc(=O)n3C)CC1 | inactive: 1.62%
Cc1nnc(N2CCC(C(=O)NC(C)C)CC2)c2nn(-c3ccc(Cl)cc3)c(C)c12 | inactive: 1.41%
Cc1ccccc1Cn1c(CCCNC(=O)C2CCCCC2)nc2ccccc21 | inactive: 2.13%
COc1ccc(S(=O)(=O)N(Cc2nc(-c3cccc(C)c3)no2)C2CCCCC2)cc1 | inactive: 1.44%
Cc1ccccc1Cn1c(SCc2ccc(C(=O)NCc3cccs3)cc2)nc2ccncc21 | inactive: -14.9%
Cc1cccc(OCc2nnc(SCC(=O)Nc3ccc(C)cc3C)o2)c1 | inactive: 17.9%
O=C(Nc1ccccc1)N1CCN(C(=O)c2nsc3ccccc23)CC1 | inactive: 6.87%
CC(=O)c1cccc(NC(=O)CCc2c(C)nc3c(-c4ccc(F)cc4)c(C)nn3c2C)c1 | inactive: 4.37%
Fc1cccc(F)c1-c1nc(-c2ccncc2)no1 | inactive: 5.45%
Cc1cc(=O)n2nc(N3CCC(C(=O)Nc4ccc(C(C)C)cc4)CC3)sc2n1 | inactive: -5.33%
CCCc1nc2sc3c(N4CCCCC4)ncnc3c2c2c1CCCC2 | inactive: -3.77%
COc1ccc(OC)c(NC(=O)Cn2cc(S(=O)(=O)c3ccccc3)c(=O)c3cc(C)ccc32)c1 | inactive: 2.61%
Cc1ccc(CCNC(=O)CCn2c(=O)c3cccn3c3ccc(F)cc32)cc1 | inactive: -5.33%
CN(C)c1ccc(CNC(=O)CCCN2C(=O)CCn3nc(-c4cccn4C)cc32)cc1 | inactive: -2.98%
CCN(CCCNC(=O)c1nn(-c2ccc(C)cc2)c(=O)c2c1c1ccccc1n2C)c1ccccc1 | inactive: 1.52%
Cc1ccc(C)c(N2CCN(C(=O)CCCn3ncn4c(cc5occc54)c3=O)CC2)c1 | inactive: -16.8%
COc1cccc(CNC(=O)CCS(=O)(=O)c2cc3c(cc2C)NC(=O)CO3)c1 | inactive: 2.63%
CCOc1ccc(CNC(=O)CCn2nc(C)c3c(C)n(-c4ccccc4)nc3c2=O)cc1 | inactive: -12.5%

SMILES | activity change, negative = cytotoxicity
CCc1ccc(-n2c(=O)c3c(C)c(C(=O)N(C)C)sc3n(Cc3cccc(C)c3)c2=O)cc1 | inactive: 2.38%
COc1ccccc1OCCCn1c(C2CC(=O)N(c3ccccc3Cl)C2)nc2ccccc21 (stereo unspecified) | inactive: -11.8%
COc1ccc(C(=O)Nc2ccc3nc(SCc4ccc(C)cc4)sc3c2)cc1 | inactive: 0.498%
Cc1ccc(-n2c(=O)c3c4c(sc3n(Cc3ccccc3F)c2=O)CCC4)cc1C | inactive: -0.199%
Cc1nc(-c2ccc(Cl)cc2)sc1CCNC(=O)c1ccco1 | inactive: -13%
Cc1ccc(O)c(-c2ccnc3cc(-c4ccc(Cl)cc4)nn23)c1 | inactive: 9.32%
COc1cc(-c2nc3sccn3c2Nc2cccc(C)c2)ccc1O | inactive: -13.3%
Cc1coc2cc3oc(=O)c(CC(=O)NCc4ccc(F)cc4)c(C)c3cc12 | inactive: -9.67%
Oc1ccccc1-c1nc(/C=C/c2ccccc2Cl)no1 | inactive: -2.05%
CCc1ccc(-n2c(=O)c3ccc(C(=O)NCCc4ccccc4)cc3n(CC(N)=O)c2=O)cc1 | inactive: -1%
CCCCOc1ccc(C(=O)NCC2(N3CCN(C)CC3)CCCCC2)cc1 | inactive: -13%
CCS(=O)(=O)N1CCc2cc(C(=O)Nc3ccc(C)c(Cl)c3)ccc21 | inactive: 22.5%
O=C(Nc1nnc(S(=O)(=O)N2CCOCC2)s1)c1cccc(F)c1 | inactive: -1.86%
COc1ccc(Cn2cc(C(=O)c3ccc(OC)cc3)c(=O)c3cc4c(cc32)OCCO4)cc1 | inactive: 5.8%
COc1ccc(OC)c(NC(=O)c2cn3c4c(ccc(Cl)c4c2=O)OC(C)C3)c1 (stereo unspecified) | inactive: 4.16%
CC(=O)c1cccc(NC(=O)C(Cc2ccccc2)NS(=O)(=O)c2ccc(Br)s2)c1 (stereo unspecified) | inactive: -6.71%
O=C(Nc1ccc(Cl)cc1)N1CCC(CN2CCCC2)CC1 | inactive: 11%
Cc1cccc(CCNC(=O)Cn2ncc3c(=O)oc4ccccc4c32)c1 | inactive: -0.685%
Cc1c2cnn(-c3ccccc3)c(=O)c2c(C)n1CC(=O)NCc1ccccc1Br | inactive: 14.5%
Cc1ccc2c(c1)C(c1ccccc1)N(C(=O)c1ccc(OC(C)C)cc1)CC(=O)N2 (stereo unspecified) | inactive: -0.545%
Nc1c(C(=O)Nc2ccc(Cl)c(C(F)(F)F)c2)sc2nc(-c3ccncc3)ccc12 | inactive: 1.37%
COc1ccc(CC(=O)NCc2ccc3c(c2)CCN3C(C)=O)cc1OC | inactive: 5.4%
CCN(CC)S(=O)(=O)c1ccc2c(c1)c(=O)c(C(=O)NCc1ccc(Cl)cc1)cn2C | inactive: -9.85%
CCOC(=O)C1CCN(C(=O)c2ccc3c(c2)sc2nc(-c4ccccc4)cn23)CC1 | inactive: 0.42%
